# Laboratory results published in PubChem BioAssay (Tox21).
# Inconclusive means that the source gave no clear call. Such entries were picked first, then a sample of the others. Where a call stands in place of a potency, no number is given. For part of these data: Potencies beside an inconclusive call are fits to weak or partial responses and may not hold up. Activity calls are given as the source filed them. Unless noted, calls come from the whole dose curve; as a rule, active = well fitted curve in the direction sought with a large enough effect in the repeat runs; inconclusive = weak or mixed curves; inactive = no such curve, though single readings can be large; an effect the other way counts as inactive or inconclusive.
# What was measured:
# [1] = A CellTox Green Cytotoxicity Assay to monitor cytotoxicity in HEK293 cells - 8 hour (AID 1224884); note: nearly all actives have a fitted effect of over 35% in size
# In short: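 Tox21 screen in HEK293: membrane-impermeant cyanine dye fluoresces on binding dead-cell DNA; compound pinned 5 h post-seeding, plates held at 37 C, signal read repeatedly through 40 h.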
# [2] = qHTS RealTime-Glo MT Cell Viability Assay in HEK293 cells - 8 hour (AID 1224887); note: nearly all actives have a fitted effect of over 50% in size; note: potency is the fitted concentration of half-maximal effect
# In short: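 HEK293 + NanoLuc + prosubstrate, 600 cells/well; 5 h, 37 C/5% CO2; compound 23 nL in DMSO by pintool; 37 C; luminescence read at 0, 8, 16, 24, 32 and 40 h time points.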
# [3] = qHTS assay to identify small molecule antagonists of the androgen receptor (AR) signaling pathway using the MDA cell line in the presence of 0.5 nM R1881 - cell viability counter screen (AID 1259242); note: potency is the fitted concentration of half-maximal effect; nearly all actives have a fitted effect of over 45% in size
# In short: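 Concentration-response screen of compounds for toxicity in MDA-kb2 reporter cells: 16 hr at 37C with 0.5 nM R1881, endpoint live-cell protease fluorescence measured in the reporter wells.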
# [4] = target: Androgen receptor (Homo sapiens) (UniProt P10275); experiment: qHTS assay to identify small molecule antagonists of the androgen receptor (AR) signaling pathway using the MDA cell line in the presence of 0.5 nM R1881 (AID 1259243); note: nearly all actives have a fitted effect of over 50% in size; note: potency is the fitted concentration of half-maximal effect
# Chain of UniProt P10275 (P10275 whole entry, looked up): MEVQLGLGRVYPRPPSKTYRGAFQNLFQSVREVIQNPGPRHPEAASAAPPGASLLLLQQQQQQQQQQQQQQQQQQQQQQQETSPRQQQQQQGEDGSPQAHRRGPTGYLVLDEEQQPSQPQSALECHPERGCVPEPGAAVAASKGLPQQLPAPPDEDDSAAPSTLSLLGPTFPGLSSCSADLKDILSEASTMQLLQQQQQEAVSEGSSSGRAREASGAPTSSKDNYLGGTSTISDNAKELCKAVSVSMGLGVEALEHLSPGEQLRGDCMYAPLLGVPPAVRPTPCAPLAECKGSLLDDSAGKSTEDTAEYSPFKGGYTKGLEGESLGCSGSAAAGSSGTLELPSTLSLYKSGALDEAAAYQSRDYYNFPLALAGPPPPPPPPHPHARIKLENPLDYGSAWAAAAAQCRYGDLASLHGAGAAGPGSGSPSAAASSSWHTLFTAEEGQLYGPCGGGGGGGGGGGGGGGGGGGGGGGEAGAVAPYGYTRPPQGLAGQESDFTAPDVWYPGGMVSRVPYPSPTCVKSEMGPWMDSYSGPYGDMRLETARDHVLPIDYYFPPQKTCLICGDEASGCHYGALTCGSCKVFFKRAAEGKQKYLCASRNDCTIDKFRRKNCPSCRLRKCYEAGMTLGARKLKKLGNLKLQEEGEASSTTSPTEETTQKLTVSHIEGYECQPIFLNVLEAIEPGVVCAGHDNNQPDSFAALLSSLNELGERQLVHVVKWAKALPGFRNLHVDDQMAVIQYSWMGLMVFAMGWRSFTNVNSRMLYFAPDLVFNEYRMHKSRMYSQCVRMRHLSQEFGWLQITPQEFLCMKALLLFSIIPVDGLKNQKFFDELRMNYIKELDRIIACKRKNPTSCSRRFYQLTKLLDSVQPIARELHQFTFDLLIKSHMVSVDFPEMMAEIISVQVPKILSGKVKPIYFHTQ
# In short: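 With R1881 held at 0.5 nM (final), compound effects on MMTV-luciferase expression in MDA-kb2 cells were scored by luminescence after a 16 hr, 37C incubation.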
# [5] = target: Estrogen receptor (Homo sapiens) (UniProt P03372); experiment: qHTS assay to identify small molecule antagonists of the estrogen receptor alpha (ER-alpha) signaling pathway using the BG1 cell line in the presence of 0.1 nM 17-beta-estradiol (AID 1259244); note: nearly all actives have a fitted effect of over 50% in size; note: potency is the fitted concentration of half-maximal effect
# Chain of UniProt P03372 (P03372 whole entry, looked up): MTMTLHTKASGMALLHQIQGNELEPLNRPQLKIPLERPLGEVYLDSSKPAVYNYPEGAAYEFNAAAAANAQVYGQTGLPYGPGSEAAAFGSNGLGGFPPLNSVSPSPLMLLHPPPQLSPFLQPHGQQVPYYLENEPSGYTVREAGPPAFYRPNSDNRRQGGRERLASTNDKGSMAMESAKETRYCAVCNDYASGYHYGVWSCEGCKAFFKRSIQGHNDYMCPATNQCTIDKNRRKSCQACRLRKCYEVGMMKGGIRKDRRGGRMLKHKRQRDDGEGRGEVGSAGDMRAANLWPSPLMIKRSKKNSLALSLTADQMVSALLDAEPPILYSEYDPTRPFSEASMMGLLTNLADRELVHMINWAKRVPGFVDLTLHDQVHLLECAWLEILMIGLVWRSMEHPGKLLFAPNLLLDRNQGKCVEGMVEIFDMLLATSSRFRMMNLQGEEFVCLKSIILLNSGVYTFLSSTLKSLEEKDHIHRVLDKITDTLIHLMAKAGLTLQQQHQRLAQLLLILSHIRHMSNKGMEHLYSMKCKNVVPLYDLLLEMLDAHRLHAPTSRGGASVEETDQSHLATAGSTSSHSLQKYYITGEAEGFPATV
# In short: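 Compounds were tested against 0.1 nM (final) 17beta-estradiol in VM7Luc4E2 cells, which express full-length ER-alpha and an ERE-luciferase reporter; luminescence was recorded following 22 h exposure.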
# [6] = qHTS RealTime-Glo MT Cell Viability Assay in HEK293 cells - 24 hour (AID 1224886); note: nearly all actives have a fitted effect of over 50% in size; note: potency is the fitted concentration of half-maximal effect
# In short: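 Tox21 10K qHTS, HEK293, 600 cells/well, RealTime-Glo reagent co-dispensed with cells; 5 h preincubation, compound by pintool, 37 C, luminescence at 0–40 h.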
# [7] = qHTS assay to identify small molecule agonists of the sonic hedgehog signaling (Shh) pathway - cell viability counter screen (AID 1259366)
# In short: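 Fluorescence from CellTiter-Fluor reports live cells in this counter screen. NIH/3T3-derived Gli1-Luc reporter cells receive test compounds for 24hr at 37C; reagent goes in at 23hr.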
# [8] = qHTS RealTime-Glo MT Cell Viability Assay in HepG2 cells - 16 hour (AID 1224885); note: nearly all actives have a fitted effect of over 50% in size; note: potency is the fitted concentration of half-maximal effect
# In short: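 Cells + NanoLuc/prosubstrate dispensed (600 cells/well) → 5 h at 37 C/5% CO2 → compounds in DMSO transferred → 40 h incubation at 37 C, luminescence read at 0, 8, 16, 24, 32, 40 h.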
# [9] = qHTS assay to identify small molecule phospholipidosis (PLD) inducers (AID 1259344; active = well fitted curve in the direction sought with a large enough effect; inconclusive = small, poorly fitted or top-dose-only effect, or another doubt; inactive = no such curve, though single readings can be large; an effect the other way counts as inactive or inconclusive); conditions: HepG2 phospholipidosis, LipidTOX Red imaging, 24 h
# In short: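 Image-based: LipidTOX Red pit count/intensity per well and per cell; HepG2, 24 h compound at 37 C, PFA fixation, Hoechst counterstain.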
# Tags give direction and shape of the fitted curve.
compound,measurement,setting,value
Cc1ccc2ccc(Cl)cc2n1,Potency,[1],inactive
O=C(NCc1ncc(C(F)(F)F)cc1Cl)c1c(Cl)cccc1Cl,Potency,[1],inactive
same,Potency,[2],"inconclusive: 61.6 µM [cytotoxic, partial curve, poor fit]"
same,Potency,[3],"inconclusive: 17.2 µM [cytotoxic, full curve]"
same,Potency,[4],active: 54.5 µM
same,Potency,[5],"inconclusive: 61.1 µM [inhibitor, partial curve]"
CC1CCC(=O)C1=O (stereo not drawn),Potency,[1],inactive
same,Potency,[5],inactive
CCCc1cc(=O)[nH]c(=S)[nH]1,Potency,[1],inactive
same,Potency,[6],inactive
CSc1ccc(O)cc1C,Potency,[1],inactive
same,Potency,[2],"inconclusive: 34.7 µM [cytotoxic, partial curve]"
same,Potency,[4],inconclusive: 24.3 µM [inhibitor]
same,Potency,[5],"inconclusive: 68.6 µM [inhibitor, single point]"
same,Potency,[7],active: 43.3 µM
O=C(Nc1ccc(Cl)c(Cl)c1)C1CC1,Potency,[8],inactive
COC(=O)/C=C/C(C)=C\C=C\C(C)=C\C=C\C=C(C)\C=C\C=C(C)\C=C\C(=O)O,Potency,[8],inactive
O=c1[nH]c(=O)c2cn[nH]c2[nH]1,Potency,[8],inactive
same,Potency,[2],inactive
CCCOc1ccccc1-c1nc2n[nH]nc2c(=O)[nH]1,Potency,[6],"inconclusive: 21.3 µM [cytotoxic, partial curve, poor fit]"
O=C(Cl)c1cccc([N+](=O)[O-])c1,Potency,[8],inactive
CCN(CC)C(C)CN1c2ccccc2Sc2ccccc21 (stereo not drawn),Potency,[6],"inconclusive: 26.8 µM [cytotoxic, single point]"
SCCOCCOCCS,Potency,[8],inactive
same,Potency,[2],"inconclusive: 43.6 µM [cytotoxic, partial curve]"
C=C(C)C(=O)OCCOCCOCCOC(=O)C(=C)C,Potency,[8],inactive
Cc1c(C(=O)NCCO)[n+](=O)c2ccccc2n1[O-],Potency,[8],inactive
same,Potency,[4],inactive
CCCCNC(=O)NCCCC,Potency,[6],inactive
N#C/C(=C1/SC[C@@H](c2ccc(Cl)cc2Cl)S1)n1ccnc1,Potency,[8],"inconclusive: 26.8 µM [cytotoxic, single point]"
same,Potency,[2],"inconclusive: 23.9 µM [cytotoxic, single point]"
same,PLD induction,[9]; PLD induction: at 38.3 µM (top of the series) unless noted,inconclusive: 36% [activator] [at 0.306 µM]
same,PLD induction,[9]; at 1.53 µM (top of the series),inactive: -2.74%
same,PLD induction,[9]; at 38.3 µM (top of the series),inactive: 13.6%
